Experimental data: paper PMC4336329 (PLoS ONE, 2015)
The campaign covered roughly 310,000 compounds. About 2,200 (0.71%) showed an effect of 50% or more. The effect is printed as a negative number. Some of the results follow.

These compounds were tested against human ether-à-go-go-related gene (hERG) potassium channel (human, UniProt Q12809) (assay: primary screen, population patch clamp on CHO cells stably expressing hERG).
Chain of human ether-à-go-go-related gene (hERG) potassium channel (Q12809 whole entry, looked up): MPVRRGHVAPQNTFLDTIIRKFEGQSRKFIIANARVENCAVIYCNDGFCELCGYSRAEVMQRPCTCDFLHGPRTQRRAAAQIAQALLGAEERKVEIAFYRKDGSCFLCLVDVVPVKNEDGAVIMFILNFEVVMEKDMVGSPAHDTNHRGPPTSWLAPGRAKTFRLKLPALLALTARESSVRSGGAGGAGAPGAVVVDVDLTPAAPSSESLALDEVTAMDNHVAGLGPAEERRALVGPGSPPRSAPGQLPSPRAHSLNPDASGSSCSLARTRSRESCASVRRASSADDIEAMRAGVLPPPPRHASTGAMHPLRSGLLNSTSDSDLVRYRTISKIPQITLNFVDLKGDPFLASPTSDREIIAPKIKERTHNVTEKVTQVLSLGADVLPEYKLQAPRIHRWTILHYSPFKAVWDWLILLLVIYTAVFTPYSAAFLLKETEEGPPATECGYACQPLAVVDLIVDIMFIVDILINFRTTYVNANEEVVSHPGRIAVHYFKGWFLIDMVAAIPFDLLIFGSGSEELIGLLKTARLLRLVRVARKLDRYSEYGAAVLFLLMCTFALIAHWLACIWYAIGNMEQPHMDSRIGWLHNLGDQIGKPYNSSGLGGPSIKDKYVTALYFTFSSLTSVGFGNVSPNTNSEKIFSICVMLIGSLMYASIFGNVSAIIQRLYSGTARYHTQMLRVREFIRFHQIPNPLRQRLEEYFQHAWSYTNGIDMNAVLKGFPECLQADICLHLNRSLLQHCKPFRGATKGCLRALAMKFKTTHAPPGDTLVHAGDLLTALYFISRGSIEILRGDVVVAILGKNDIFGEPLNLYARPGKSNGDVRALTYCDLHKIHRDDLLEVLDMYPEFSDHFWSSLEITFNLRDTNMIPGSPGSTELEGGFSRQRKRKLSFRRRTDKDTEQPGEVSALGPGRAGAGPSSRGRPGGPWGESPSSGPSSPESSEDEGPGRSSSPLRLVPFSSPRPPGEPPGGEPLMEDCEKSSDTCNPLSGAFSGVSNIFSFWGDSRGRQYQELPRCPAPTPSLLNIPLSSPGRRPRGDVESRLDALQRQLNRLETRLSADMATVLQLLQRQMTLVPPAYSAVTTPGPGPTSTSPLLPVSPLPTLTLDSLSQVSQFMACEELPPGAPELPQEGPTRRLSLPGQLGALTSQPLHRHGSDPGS

| Structure (SMILES) | hERG current change (%, negative = inhibition) at 1uM [%] |
| --- | --- |
| CCCCNC(=S)N/N=C/c1ccccc1F | 0.387 |
| O=[N+]([O-])c1ccc(S(=O)(=O)N/N=C/c2ccsc2)cc1 | 0.0881 |
| Oc1ccc2c(c1)oc1cc(O)ccc12 | 18.6 |
| CCOC(=O)C(C)Oc1ccc(OCc2ccccc2)cc1 (centres unmarked) | 15 |
| COC(=O)CC[C@@H](C(=O)O)N1C(=O)c2ccccc2C1=O | 8.51 |
| O=C(O)Cn1cccc1C(=O)c1ccccc1 | -23.4 |
| COc1cccc(-c2ccc(-c3noc(-c4ccccc4F)n3)c(OC)n2)c1 | -2.17 |
| NNC(=O)c1cnn(-c2ccccc2)c1C(F)(F)F | 19.8 |
| CCn1cc(C(=O)O)c(=O)c2cc(F)c(N3CCN(C(=S)NC(=O)c4cccc(C)c4)CC3)cc21 | 8.59 |
| CC12CN(C(=O)c3ccc([N+](=O)[O-])cc3)CC(C)(CN(C(=O)c3ccc([N+](=O)[O-])cc3)C1)C2=O | 11.4 |
| CCc1noc(C)c1C(=O)Nc1nc2c(C)cccc2s1 | 8.71 |
| CCN(CC)S(=O)(=O)c1ccc(N2CCOCC2)c(NC(=O)CNCCc2ccccc2)c1.O=C(O)C(=O)O | 1.29 |
| O=C(c1ccccc1)c1ccncc1 | 13.5 |
| C=C(C)Cc1c(C)c(C#N)c2nc3ccccc3n2c1N1CCCCC1 | 5.41 |
| C=CCn1c(=O)c(C(=O)Nc2ncccc2O)c(O)c2ccccc21 | 10.2 |
| CCN(Cc1nc2ccccc2c(=O)[nH]1)Cc1cc(=O)oc2cc(OC)ccc12 | -25.6 |
| C=CCSc1cc(C)nc2c(-c3ccccc3)cnn12 | 12.9 |
| CC(=O)Nc1ccc(NC(=O)Cn2c(-c3ccc(F)cc3)cnc2SCC(=O)Nc2c(C)cccc2C)cc1 | 8.7 |
| Cc1ccc(NC(=O)CCn2cnc3cc(C)c(C)cc32)cc1 | 8.13 |
| Cn1cc2cc([N+](=O)[O-])ccc2n1 | 3.92 |
| CN(Cc1ccccc1)S(=O)(=O)c1ccc(Cl)c(C(=O)O)c1 | 10.8 |
| Cc1cc2ccccc2nc1SCC(=O)NC1CCCC1 | 9.91 |
| N=C1/C(=C\c2ccc(OC(=O)c3ccc(F)cc3)cc2)C(=O)N=C2SC(N3CCCC3)=NN12 | 9.37 |

| Structure (SMILES) | hERG current change (%, negative = inhibition) at 1uM [%] |
| --- | --- |
| O=C(Oc1ccc2c(=O)c(Oc3ccc4ccccc4c3)coc2c1)c1ccco1 | 3.86 |
| CCc1noc(C)c1C(=O)N(C)CC(=O)Nc1ccc(Br)cc1C | 15.2 |
| Cc1cc(C)nc(N2CCC(C(=O)Nc3ccc(Oc4ccccc4)cc3)CC2)n1 | 7.83 |
| Cc1nnc(NC(=O)CC23CC4CC(CC(C4)C2)C3)s1 | 10.4 |
| Cc1cc(C)cc(NC(=O)CN2CCC(NC(=O)Cc3ccccc3)CC2)c1 | -1.89 |
| Cn1c(CNS(=O)(=O)c2ccc(F)cc2)n[nH]c1=S | 19.3 |
| C/C(=N/NC(=O)CNS(=O)(=O)c1ccccc1)c1ccc(Br)cc1 | 11 |
| CCc1nc(NCC(C)C)c(C#N)c2c1COC(C)(C)C2 | 6.38 |
| COc1ccc(OC)c(NC(=O)CSc2nnc(-c3ccco3)o2)c1 | 7.18 |
| CC(C)(C)NC(=O)CN(C(=O)CS(=O)CC(=O)Nc1ccc(F)cc1)c1ccccc1F (centres unmarked) | 2.83 |
| Cc1ccccc1S(=O)(=O)N1CCN(C)CC1 | 11.3 |
| COc1ccc(C2C(C(=O)c3ccco3)=C(O)C(=O)N2CCCn2ccnc2)c(OC)c1 (centres unmarked) | 13.9 |
| O=C(/C=C/Nc1ccc(F)c(F)c1)c1ccc(Br)cc1 | 5.16 |
| Cc1cccc(OCC(=O)NC(=S)Nc2ccc(S(=O)(=O)NC3CCCCC3)cc2)c1 | 11.2 |
| N#Cc1c(N)c(C#N)c(-c2ccc3c(c2)OCO3)c2c1CCCC2 | 7.46 |
| O=C(Cn1c(=O)oc2cc(S(=O)(=O)N3CCCC3)ccc21)N1CCCC1 | 13.9 |
| Cc1cc(C)c2c(=O)[nH]c(SCC(=O)c3ccc(C(C)C)cc3)nc2n1 | 7 |
| CC(=O)c1cc(-c2ccccc2)n(CC(=O)NC2CCCC2)c1C | 10.7 |
| CCCCNC(=O)CSc1nnc(Cc2ccccc2)n1CC1CCCO1 (centres unmarked) | 16.4 |
| CCC(C)NCCOCCSc1ccc(Cl)cc1.O=C(O)C(=O)O (centres unmarked) | -22.6 |
| Nn1cc(-c2ccccc2)nc1SCC(=O)NC1CCS(=O)(=O)C1 (centres unmarked) | 7.62 |
| CCOc1ccc(OCCC(=O)OC(C)C(=O)Nc2ccc(C(C)=O)cc2)cc1 (centres unmarked) | 3.51 |
| CC1(C)CCC(=O)N(c2ccc(OC(F)(F)F)cc2)C1=O | 12.6 |

| Structure (SMILES) | hERG current change (%, negative = inhibition) at 1uM [%] |
| --- | --- |
| Cc1cccc(C(=O)NCC(=O)OCC(=O)N(C)CC(=O)Nc2ccccc2Cl)c1 | 2.24 |
| CCOC(=O)c1c(C)nn(Cc2cccc(Cl)c2)c1N | 3.66 |
| O=C(Nc1ccc2c(c1)OCCO2)c1cccc(S(=O)(=O)N2CCOCC2)c1 | -5.81 |
| NNC(=O)c1ccc(Oc2cc(Cl)cc(Cl)c2)o1 | 2.4 |
| O=[N+]([O-])c1ccc(N2N=C(c3ccccc3)CC2c2ccccc2O)cc1 (centres unmarked) | 8.01 |
| CCN(CC)CCCNC(=O)c1cn(CC(C)C)c(=O)c2c1c1ccccc1n2C | 3.56 |
| COc1ccccc1-c1oc2ccccc2c1C#CCCCCO | 23 |
| Cc1ccc(NC(=O)CSc2nnc(-c3cnccn3)n2C)cc1C | 22.4 |
| CC1=C(C(=O)Nc2cccnc2)C(c2cccnc2)n2nc(-c3cccs3)nc2N1 (centres unmarked) | 12.1 |
| CCCc1nc(SCC(=O)Nc2nnc(SCC)s2)c2c(=O)n(C)c(=O)n(C)c2n1 | 10 |
| COc1ccccc1NC(=O)C12CC3CC(C1)CC(c1ccc(C)cc1)(C3)C2 | 8.48 |
| COc1ccc(-c2cc(C(=O)NCC3CCCO3)c3cc(C)ccc3n2)cc1 (centres unmarked) | 12.1 |
| CN1CCN(S(=O)(=O)c2ccc(Sc3nnc(-c4cccs4)n3-c3ccccc3)nc2)CC1 | 8.01 |
| Cc1ccc([N+](=O)[O-])cc1NC(=O)c1cccnc1 | 9.15 |
| CC/C(=C(/CC)c1ccc(O)cc1)c1ccc(O)cc1 | 16 |
| CCCN(CCC)S(=O)(=O)c1ccc(C(=O)NCc2ccco2)cc1 | 14.1 |
| CCOC(=O)C1=C(C)N=C2SC(C)C(=O)N2C1/C=C/c1ccccc1OC (centres unmarked) | 11.5 |
| Cn1c(C(=O)NCCN2CCN(Cc3ccccc3)CC2)cc2c(=O)n(C)c3ccccc3c21 | 5.29 |
| Cc1cc(CNC(=O)Cc2ccccc2)c2ccccc2n1 | -12.1 |
| CC1(C)SC2c3ccccc3C(=O)N2[C@@H]1C(=O)O (some centres unmarked) | 12.8 |
| Cc1ccc(CNC(=O)c2ccccc2CCc2ccccc2)cc1 | -6.69 |
| CC[N+](CC)(CC)C/C(N)=N/O.[Cl-] | 11.1 |
| Cc1ccc(N2C(=O)C(O)(C(F)(F)F)C3=C2CC(C)(C)CC3=O)cc1 (centres unmarked) | 13 |

| Structure (SMILES) | hERG current change (%, negative = inhibition) at 1uM [%] |
| --- | --- |
| Cc1cccc(N2C(=O)NC(=O)C3(Cc4cc(C)ccc4N(C)C3)C2=O)c1 (centres unmarked) | 13.2 |
| COc1cc(C(=O)Nc2ccccc2C2COC(=O)C2=N)cc(OC)c1OC (centres unmarked) | 4.85 |
| CN(C)c1nc(Oc2ccc(/C=N/O)cc2)nc(N(C)C)n1 | 11.2 |
| CC12CS(=O)(=O)CC1SC(=S)N2Cc1ccccc1 (centres unmarked) | 5.71 |
| O=C(Nc1ccc2[nH]ccc2c1)c1ccccc1 | 19.6 |
| CC(C)c1ccccc1NC(=O)CNCCOc1ccccc1F.O=C(O)C(=O)O | 14 |
| O=C(NCc1ccccc1)c1ccc(F)c(F)c1 | 12.9 |
| Cc1cccc(NCc2cccc3ccccc23)n1 | 16.2 |
| CCCCCCNC(=O)C(C#N)c1nc2ccccc2nc1N1CCOCC1 (centres unmarked) | 9.49 |
| CSc1nnc(C)c(=O)n1COC(=O)c1cc(Cl)ccc1[N+](=O)[O-] | 12.6 |
| CCOCc1nnc(NC(=O)CSc2ccccc2)s1 | 4.8 |
| COC(=O)c1c(C)oc(C)c1S(=O)(=O)NCc1ccc(Cl)cc1 | 7.45 |
| COc1ccc(CN(C)C(=O)c2ccc(OCC(=O)Nc3cccc(C(F)(F)F)c3)c(OC)c2)c(OC)c1 | 6.3 |
| CCC(C)(C)NC(=O)C(c1cccc(OC)c1OC)N(Cc1ccc(OC)cc1)C(=O)CCC(=O)Nc1cc(C)on1 (centres unmarked) | 3.7 |
| COC(=O)/C(=C/c1cccc([N+](=O)[O-])c1)NC(=O)c1ccc(OC)cc1 | 7.25 |
| O=c1oc(-c2ccccc2NS(=O)(=O)c2ccccc2)nc2ccccc12 | 10.3 |
| CCOC(=O)c1cc(NC(=O)c2cc(C)on2)cc(C(=O)OCC)c1 | -3.34 |
| COc1ccc(CNC(=O)CC(C)CC2=NS(=O)(=O)c3ccccc3N2)cc1 (centres unmarked) | 14 |
| COC(=O)c1scc(C)c1NC(=O)CSc1ccc(Cl)cc1 | 2.99 |
| CC(CCc1ccco1)NC(=O)CSc1cc(=O)n(C)c2ccccc12 (centres unmarked) | -1.14 |
